In PubChem BioAssay AID624296 (National Center for Advancing Translational Sciences (NCATS), 2012):
Screen size: about 350,000 compounds; about 9,900 (2.8%) were called active. Inconclusive results, whose numbers are uncertain, are shown with a selection of clear calls. The call rests on the fitted dose curve; in most records, active means well fitted activation curve with a large enough effect; inconclusive means small, poorly fitted or top-dose-only effect; inactive means no such curve, though single readings can be large or run the other way. No potency is given beside an inconclusive call; the fits are too rough.

Assay: A quantitative high throughput screen for small molecules that induce DNA re-replication in MCF 10a normal breast cells. Further: nearly all actives have a fitted effect of over 50% in size.
Settings: MCF 10A DNA re-replication, Hoechst nuclear intensity, 48 h; series mostly up to 46.1 µM
Potency means the concentration at half of the fitted maximal effect; tags describe the fitted curve by direction and shape.

| Compound | Potency |
| --- | --- |
| N#Cc1ccc(OCC(=O)N/N=C/C2CC=CCC2)cc1 (stereo unspecified) | inconclusive [activator, single point] |
| O=C(Cc1c(F)cccc1Cl)NC1CCN(Cc2ccccc2)CC1 | inconclusive [activator, full curve, poor fit] |
| CCOc1cc(CNCc2ccncc2)cc(Br)c1OCc1ccc(F)cc1 | inconclusive [activator, partial curve] |
| COCCn1c(N)c(C(=O)NCC2CCCO2)c2nc3ccccc3nc21 (stereo unspecified) | inconclusive [activator, partial curve, poor fit] |
| Cc1ccc(C(=O)OCC(=O)N2CCC(c3ccccc3)=N2)c(C)c1 | inconclusive [activator, partial curve, poor fit] |
| Cc1ccc(S(=O)(=O)N(CC(=O)NCCC2=CCCCC2)Cc2ccccc2F)cc1 | inconclusive [activator, single point] |
| CC(C)c1ccc(C2C3=C(CC(C)(C)CC3=O)NC3=C2C(=O)c2ccccc23)cc1 (stereo unspecified) | inconclusive [activator, single point] |
| CCn1c(C)nc2cc(C(N)=O)ccc21 | inactive |
| COc1cc(/C=N/NC(N)=S)ccc1OCc1ccc(C)cc1 | inconclusive [activator, single point] |
| Nc1ncnc2c1ncn2[C@@H]1O[C@H](CNS(=O)(=O)c2cc3ccccc3s2)[C@@H](O)[C@H]1O | inconclusive [activator, partial curve, poor fit] |
| Cc1sc2ncn(CC(=O)NCc3ccccc3)c(=O)c2c1C | inconclusive [activator, single point] |
| Cn1c(-c2cc(Br)ccc2O)n[nH]c1=S | inconclusive [activator, full curve, poor fit] |
| CCn1c(=O)c(C(=O)NCCc2ccccc2)c(O)c2ccccc21 | inconclusive [activator, single point] |
| CC(C)CNC(=O)C1CCN(S(=O)(=O)c2ccc3c(c2)OCCO3)CC1 | inactive |
| COc1ccc(S(=O)(=O)N(C)C[C@H]2Oc3ccc(NS(=O)(=O)c4cccs4)cc3CC(=O)N([C@H](C)CO)C[C@H]2C)cc1 | inactive |
| COc1cccc(SCc2noc(C(=O)NCCC(C)C)c2C(=O)NCCC(C)C)c1 | inconclusive [activator, partial curve, poor fit] |
| COc1cc(NC(=O)c2ccccc2)c(OC)cc1NC(=O)Cc1ccccc1 | inconclusive [activator, partial curve, poor fit] |
| COc1ccc(C23CC4CC(CC(C4)C2)C3)cc1C(=O)NCCN(C)C | inconclusive [activator, partial curve, poor fit] |
| COc1cccc(C(=O)C[n+]2ccccc2/C=N/O)c1 | inconclusive [activator, single point] |
| O=C(CSc1nc2ccccc2c(=O)n1-c1ccccc1)NCc1ccc2c(c1)OCO2 | inactive |
| Oc1ccc(Nc2nc(Cl)nc(NCc3ccco3)n2)cc1 | inconclusive [activator, single point] |
| O=c1ccc(-c2ccccc2)nn1Cc1ccccc1 | inactive |

| Compound | Potency |
| --- | --- |
| O=C(NCCN1CCOCC1)c1cccc(S(=O)(=O)Nc2ccc(Br)cc2)c1 | inactive |
| CCOc1cccc(C(=O)NC2=NCCS2)c1 | inconclusive [activator, single point] |
| COc1cccc(NC(=O)CN2C(=O)CSc3ccc(S(=O)(=O)N4CCC(C)CC4)cc32)c1 | inactive |
| S=C(Nc1cccc(Cl)c1)N(CCCN1CCCC1)Cc1cccn1Cc1ccc(Cl)cc1 | inconclusive [activator, single point] |
| Cc1cc(Nc2ccccc2)n(-c2ccc(Br)cc2)n1 | inconclusive [activator, single point] |
| O=[N+]([O-])c1csc2ccccc12 | inconclusive [activator, single point] |
| O=[N+]([O-])c1ccc2nc(-c3cccnc3)[nH]c2c1 | inconclusive [activator, single point] |
| COc1ccccc1-c1cc(C(=O)N/N=C/c2ccc(C)s2)c2ccccc2n1 | inconclusive [activator, partial curve] |
| C=CCn1c(=N)c(C#N)cc2c(=O)n3ccccc3nc21 | inconclusive [activator, single point] |
| O=C(CSc1ccccn1)Nc1nonc1[N+](=O)[O-] | inactive |
| COc1ccc(CNC(=O)CSCc2ccccc2Cl)cc1 | inactive |
| CC(C)(C)n1nnnc1C(c1ccc(F)cc1)N(Cc1ccc(F)cc1)Cc1ccco1 (stereo unspecified) | inconclusive [activator, partial curve, poor fit] |
| O=C(CCN1C(=O)C2(OCCO2)c2ccccc21)c1ccccc1 | inconclusive [activator, partial curve, poor fit] |
| O=C(NCCN1CCN(c2cccc(Cl)c2)CC1)C1CCCN(S(=O)(=O)c2cnc[nH]2)C1 (stereo unspecified) | inconclusive [activator, single point] |
| CCn1c(O)c(C2=c3ccccc3=NC2=O)c2cc(Br)ccc21 | active: 16.4 µM |
| CCOC(=O)N1CCC(N2CCCC(C(=O)c3ccc4cc(OC)ccc4c3)C2)CC1 (stereo unspecified) | inactive |
| COC(=O)c1cccc(NC(=O)CSCc2ccccc2)c1 | inconclusive [activator, single point] |
| Cc1cccc(Nc2nc(N3CCCC3)nc(N3CCCC3)n2)c1 | active: 20.6 µM |
| COc1ccc(C(C(=O)NC2CCCC2)N(C(=O)c2snc(-c3ccc(F)cc3)c2N)c2ccccc2)cc1 (stereo unspecified) | inactive |
| COc1ccc(C(C(=O)NC2CCCCC2)N(C(=O)Cc2c[nH]c3ccccc23)c2ccccc2)cc1OC (stereo unspecified) | inconclusive [activator, single point] |
| COc1ccccc1NC(=O)CSC(N)=O | inconclusive [activator, partial curve, poor fit] |
| S=C(NCCSCc1ccc(Cl)cc1Cl)Nc1ccccc1 | inconclusive [activator, partial curve, poor fit] |

| Compound | Potency |
| --- | --- |
| Cc1ccc(-c2nnn(CC(=O)N(Cc3cccs3)C(C(=O)NC3CCCC3)c3ccco3)n2)o1 (stereo unspecified) | inconclusive [activator, partial curve, poor fit] |
| C[C@H](CO)N1C[C@H](C)[C@@H](CN(C)C(=O)Nc2ccc(C(F)(F)F)cc2)Oc2c(NC(=O)Cc3ccccc3)cccc2C1=O | inactive |
| Cc1ccc(-c2csc(NNC(=O)c3ccccc3)n2)cc1 | inconclusive [activator, partial curve] |
| CCC1CCc2sc(C(=O)NC3CCN(Cc4ccccc4)CC3)cc2C1 (stereo unspecified) | inconclusive [activator, single point] |
| COc1ccc(CN(C)C(=O)C2CCN(S(=O)(=O)c3cccs3)CC2)cc1F | inconclusive [activator, single point] |
| Cc1nc(SCC(=O)Nc2cc(C)on2)c2c(C)c(C)sc2n1 | inconclusive [activator, partial curve, poor fit] |
| CCOC(=O)c1ccc(NC(=O)c2cc(S(=O)(=O)N3CCOCC3)ccc2O)cc1 | inconclusive [activator, partial curve, poor fit] |
| Cc1ccc(CNC(=O)CNC(=O)c2ccc(C(C)(C)C)cc2)n1C | inconclusive [activator, partial curve, poor fit] |
| Cc1ccc2[nH]c(C(=O)N3CCCCC3)cc2c1 | inconclusive [activator, single point] |
| CCOC(=O)c1sc(-c2ccc(F)cc2)cc1N | inconclusive [activator, partial curve, poor fit] |
| N#CCc1ccc(OC(=O)c2cnccc2C(F)(F)F)cc1 | inactive |
| Cc1ccc(/C=C2\C(=N)N3N=C(CC(=O)N4CCOCC4)SC3=NC2=O)o1 | inactive |
| Cc1cc(C)n(C(=O)c2cc3ccccc3c(=O)o2)n1 | inconclusive [activator, full curve, poor fit] |
| Cc1cc(C)c2c(=O)n(CC(=O)Nc3cccc(F)c3)sc2n1 | inconclusive [activator, partial curve, poor fit] |
| CCc1ccc(C(=O)Nc2cc3c(cc2Cl)OCCCO3)cc1 | inconclusive [activator, partial curve, poor fit] |
| CC(=O)N(CCC1(C(C)C)CCOC(C)(C)C1)Cc1ccco1 (stereo unspecified) | inactive |
| O=C(NC(c1ccccc1)c1c(O)ccc2ccccc12)c1ccccc1Cl (stereo unspecified) | active: 23.1 µM |
| CCCCC1(C(=O)OCC)CC(CSC(=N)N)OC1=O (stereo unspecified) | inconclusive [activator, single point] |
| CCN(c1ccccc1)S(=O)(=O)c1ccc(C(=O)Nc2ccncc2)cc1 | inactive |
| COc1ccc(/C=C2/SC(=S)NC2=O)cc1OCc1ccccc1 | inconclusive [activator, single point] |
| COc1ccccc1Nc1nc(-c2ccc3c(c2)NC(=O)CO3)cs1 | inconclusive [activator, single point] |
| Cc1ccc(NC(=S)N(C)Cc2cn(C)c3ccccc23)cc1 | inconclusive [activator, partial curve, poor fit] |
